Values marked as one replicate rest on one cluster of the flow cell; about a third of the high ones do not repeat.
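Further: ATP exposure 15 min at 22 °C before imaging.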

This data set has as its system ATP. As to the kind of experiment: switch fluorescence ratio, 500 uM ATP over buffer (Cy3 cluster intensity, sum of 5 cycles each) (fold (ratio)); higher = stronger signal-on switching upon ATP binding; sequences stand for … in TCGTCGGCAGCGTCAGATGTGTATAAGAGACAGTTTTTTTTTTTTTTTTTTTTTTTTT…TC. As to conditions: aptamer strand: ATP DNA aptamer (quencher-CACCTGGGGGAGTATTGCGGAGGAAGG + anchor), 100 nM annealed; ATP concentration: 500 uM; one replicate. Summed up: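 The quencher-labelled ATP aptamer, at 100 nM, was annealed to Cy3-labelled switching-strand clusters on a modified Illumina MiSeq flow-cell. The clusters were imaged in selection buffer, then after 15 min with 500 uM ATP at 22 °C, and this buffer/ATP cycle ran five times with NaOH stripping and re-annealing between runs. Per-cluster fluorescence ratios, summed target-cycle over summed buffer-cycle Cy3 intensity, were averaged per switch-domain sequence. Clusters outside 100-1000 RFU were excluded.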
Consider GTCGCCCTAT, for which the switch fluorescence ratio is 0.994.
The value for ATTTCTGGTG was 1.12.
Regarding ATTGAGTCAA, the switch fluorescence ratio is 0.981.
Consider CGGGGAGTTA, for which the switch fluorescence ratio is 0.994.
The same measure for CCGCTTGCCA: 1.23; for TCATTCTAT: 1.01.
The same measure for AGTACTGAGT: 1.1; for TACACGTGGG: 1.07.
The value for TGCAAAAATA was 0.983; that for ACGGGACGTT was 0.933; that for AACGGCCG was 1.01.
Turning to ATAGCCATAG, the switch fluorescence ratio turned out to be 1.04.
For the sequence TGACATGCTG, the switch fluorescence ratio was 1.04.
The value for ACCGCCACCC was 1.42; that for ACTGGATCTC was 1.01; that for GGTTTGCTT was 0.946.
The same measure for GCCAATAAGC: 0.986.
The value for AATAAACGAA was 0.941; that for GCTTGATTG was 1.01; that for CCGATGCCAG was 1.29.
For GCTACAAGGA, the switch fluorescence ratio turned out to be 1.04.
The same measure for ATTCGTACCT: 1.17; for GGGCTTCGGC: 0.992.
The value for ACGGATTTA was 1.01; that for TTTCGGATTA was 0.981; that for CGCTCTACCC was 2.81.
For TGGCTACTTT, the switch fluorescence ratio came out at 1.04.
The value for GTCTACAGGT was 0.983; that for GCTGGGTGTT was 1.14; that for CCCCTTAAGT was 1.04.
For the sequence CATGAACCGG, the switch fluorescence ratio worked out at 1.02.
The same measure for TAATCTGAAT: 0.93; for CTGGTAGGAG: 1.05; for TAGAGTTTTT: 0.998.
The same measure for CCGGCACTCT: 1.22.
The same measure for ACCGATTTAG: 1.02; for GGCTACTAAG: 1.04; for TAGTGCGTCA: 0.988.
With GACCTTGGCA, the switch fluorescence ratio worked out at 1.04.
As for CAACTAGCCT, the switch fluorescence ratio is 1.1.
On to GTGATTGGA, for which the switch fluorescence ratio was found to be 0.995.
The value for CAGCCGGCTT was 1.1; that for AAGGGTGCCG was 0.995.
The same measure for GAAAAACGGG: 0.979; for CTTCACTTGC: 1.05; for TAATGAAGCT: 1.07.
On to ACCATGGTGT, for which the switch fluorescence ratio is 1.03.
For TGTTACGGCT, the switch fluorescence ratio is 1.03.
The value for ACCAATACGA was 3.59; that for GTGAGGTCTC was 0.952; that for GAGAACCTG was 0.988.
The same measure for GTTGCCTAGC: 0.955; for TCCTTCCTA: 2.02; for ACCTACAGAA: 1.2.
The same measure for TTACGATGAC: 1.45.
As for TTAATTTTAC, the switch fluorescence ratio is 1.02.
The value for TTTGACTCTT was 0.998; that for GAGCCAGGAC was 1.1.
The same measure for ACCGGATGCA: 0.962.
On to ATAGGTCATG, for which the switch fluorescence ratio turned out to be 0.993.
For CCCTCTAGGA, the switch fluorescence ratio was 0.969.
Consider GTTCGGGGTC, for which the switch fluorescence ratio was 1.07.
On to GGTCAGCACT, for which the switch fluorescence ratio was determined as 1.03.
With CATTACGGAA, the switch fluorescence ratio came to 1.09.
Consider TATCCAGATA, for which the switch fluorescence ratio was 0.974.
The same measure for CAAGGTGCGC: 0.989.
The same measure for AAAAACATCG: 1.03.
Consider CGGAAATAGA, for which the switch fluorescence ratio was 0.984.
As to AGAAGTGCGT, the switch fluorescence ratio stood at 1.04.
The value for ATGCTACAGG was 1.03; that for GGGTATCCAG was 0.985; that for GTCCCAGACT was 0.974.
With CCCTAGGACC, the switch fluorescence ratio came to 1.02.
The same measure for CGTGAGTGTA: 1.
In the case of GAGCCAACGA, the switch fluorescence ratio was determined as 0.988.
The same measure for TCGGTGGAG: 1.06.
The value for GAGATCATGG was 1.04; that for ATTTCATCCT was 0.956; that for TATGAAAGCG was 0.995.
The same measure for ATAAATGCGC: 1.01.
As for CCCGGTTGTC, the switch fluorescence ratio turned out to be 1.11.
CGATATTCTA: the switch fluorescence ratio was 1.05.
The same measure for CTCTGTCAAA: 1.88.
In the case of CGACCTCAAA, the switch fluorescence ratio is 1.08.
The value for TAAGGACGA was 0.965.
On to CTCTCCTCGG, for which the switch fluorescence ratio came to 1.37.
The value for AAACGCATTT was 1.12; that for AGAAGCATAA was 1.14.
The value for CCCTTTTCCC was 1.04; that for TTTCATTCCG was 1.1; that for TACATTCGTG was 1.02.
GCGATGGGAT: the switch fluorescence ratio came to 1.04.
The same measure for ATGTTCATTA: 0.974; for TCCATTTGTG: 1.01.
In the case of GCTGCAGACC, the switch fluorescence ratio stood at 1.09.
The value for CACGTACGGA was 1.72.
The value for GAGGGAAGTG was 0.974; that for GGTGTTATTT was 0.991.
ACTGGGCCAC: the switch fluorescence ratio was 1.08.
In the case of CCGATTAATC, the switch fluorescence ratio is 1.34.
The same measure for GTTAGTCACG: 0.975; for AATAGAACGC: 1.01; for AGATCAGAGG: 0.998.
As to GGTGCCATTC, the switch fluorescence ratio was determined as 0.978.
As for ATTCGAATTC, the switch fluorescence ratio worked out at 0.999.
The value for TTGCAAAGGA was 0.969; that for AACGAACCGT was 1.09; that for ATAATCTCTG was 1.01.
The same measure for CTATCTCTCT: 0.924.
On to GTCGTAAACC, for which the switch fluorescence ratio stood at 1.03.
Consider TACTGCATTT, for which the switch fluorescence ratio came to 1.
With TTTCTGCAGA, the switch fluorescence ratio turned out to be 1.01.
The value for AACCCTGTAG was 1.03; that for CTTTATATCA was 0.949; that for AACAGGGG was 1.13.
The same measure for TCTTTTTAGG: 1.03; for TTAGGACCGT: 1.02.
For the sequence TAAATGTGTG, the switch fluorescence ratio was found to be 0.986.
The same measure for CCTTTCATT: 1.02; for TGCGTTGATG: 1.04.

The values are drawn from the supplement of paper PMC10126150.
